Some of the results follow.

In the assay the target is T1, OsWOX13 (Oryza sativa, UniProt Q5QMM3 1-267).
T1 sequence: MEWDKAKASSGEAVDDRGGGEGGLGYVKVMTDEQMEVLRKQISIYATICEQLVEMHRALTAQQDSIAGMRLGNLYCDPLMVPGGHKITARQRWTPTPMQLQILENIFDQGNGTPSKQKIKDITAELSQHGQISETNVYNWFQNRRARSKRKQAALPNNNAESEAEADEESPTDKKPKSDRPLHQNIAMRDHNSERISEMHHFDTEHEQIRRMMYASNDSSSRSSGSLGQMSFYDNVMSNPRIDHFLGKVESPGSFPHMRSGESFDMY
In words: protein-binding microarray (RPBM); PBS, 2% BSA, 51.3 ng/ul salmon testes DNA, 50 uM zinc acetate, 200 nM TF, 25 C, 1 h; high values mean tight binding. The note with it: protein: recombinant; tags: N-terminal polyhistidine and DsRed monomer fusion (pET32a); label: CyDye5-dUTP incorporated in the synthesized complementary strand; 3' TTTTT single-stranded linker to array surface; dsDNA, one strand shown. The method, boiled down:
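Binding signal is reported as fluorescence intensity per feature (arbitrary units) from an Axon 4000B scanner. Incubation used 200 nM of each Ni–NTA-purified, N-terminally polyhistidine- and DsRed-fused transcription factor from E. coli BL21-CodonPlus on a double-stranded custom Agilent array for 1 h at 25 °C, with 50 µM zinc acetate in the buffer, followed by washing.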
As to “ACTAACAGTAATAAATTAATGGCGCACGTTGTTTCAAAGACGGAGTCACCTAGTGCAG”, the binding signal is 8720 fluorescence intensity (a.u.).
As to “GTAGTGCGTAATTGCGTATGTCCAGCCCTGCTCATCAGTTCGGAGTCACCTAGTGCAG”, the binding signal is 3380 fluorescence intensity (a.u.).
“CAAATTAGTTCCAGTAAATTTAACATTGAACGTATTTTAACGGAGTCACCTAGTGCAG”: the binding signal was 4010 fluorescence intensity (a.u.).
In the case of “GGTGATTTGGGATCTAGATGATACATTATGATAAGTTATGCGGAGTCACCTAGTGCAG”, the binding signal was 20300 fluorescence intensity (a.u.).
To “AGTACTCATAATTTCCATTAATTAAGACTCATTTAATTAGCGGAGTCACCTAGTGCAG” belongs 28000 fluorescence intensity (a.u.).
For “TTGAAAACTATATAATTAGAAACACGAGGATGATAAGGTTCGGAGTCACCTAGTGCAG”, the binding signal was 5060 fluorescence intensity (a.u.).
As for “CTAAAATAAACCATACTAAATTTTGACAATACCAAGACTTCGGAGTCACCTAGTGCAG”, the binding signal was 4640 fluorescence intensity (a.u.).
With “GTAAGAGTACTTAAATAGATTGACACATGAAGATACATGACGGAGTCACCTAGTGCAG”, the binding signal is 6730 fluorescence intensity (a.u.).
Then “ATTTGATTAATGTCTTGTATGATATGGTCGACAGTGAGGACGGAGTCACCTAGTGCAG”, with 41800 fluorescence intensity (a.u.).
As for “ACCAATAATTAAATTATAAAAGAAGGGAGCATATATATTACGGAGTCACCTAGTGCAG”, the binding signal is 15700 fluorescence intensity (a.u.).
To “TAATCTAGATTATAATAATCTTAAACTGAAACAAACAGGGCGGAGTCACCTAGTGCAG” belongs 10900 fluorescence intensity (a.u.).
To “GGTCTGACTGATTGCGTCGTGTAACAAACATTATATTCTTCGGAGTCACCTAGTGCAG” belongs 34700 fluorescence intensity (a.u.); to “ATTGAATTGTTTCCTTGTTTATCAATTCAAATTTGAAGTTCGGAGTCACCTAGTGCAG”, 3270 fluorescence intensity (a.u.).
For “CCTAATGAATCTTAGGTAATTAAGCAGCGTAAGCTCTACTCGGAGTCACCTAGTGCAG”, the binding signal is 6980 fluorescence intensity (a.u.).
Then “ATTAAATCTCGCTCTTAATTGCGAAGCTTACTCCATTGACCGGAGTCACCTAGTGCAG”, with 12600 fluorescence intensity (a.u.); and “GCCTAATTACACCATGATTAGACAACGTAGTGTTACATTACGGAGTCACCTAGTGCAG”, with 41400 fluorescence intensity (a.u.); and “TTTTATAATTTATATATGGTCAACACACGAAATTGAATGTCGGAGTCACCTAGTGCAG”, with 15100 fluorescence intensity (a.u.).
With “TTACAAAATTAATTTATATACTTAATAGGGACTTGGCCACCGGAGTCACCTAGTGCAG”, the binding signal was 29100 fluorescence intensity (a.u.).
In the case of “TCAGTGAGGATATTAATTGAACTCCCATTGCCAACACCCCCGGAGTCACCTAGTGCAG”, the binding signal is 6400 fluorescence intensity (a.u.).
Regarding “TGTGGAAGATTATGATTAATTGAAAAGATAATGTACGTGCCGGAGTCACCTAGTGCAG”, the binding signal was 51900 fluorescence intensity (a.u.).
Then “CTATAAAATTATGTAGCTCTGTGATGGAAAGCTTGAAGGACGGAGTCACCTAGTGCAG”, with 3520 fluorescence intensity (a.u.); and “AATATTGACATGAAATTATATTAACGTTAGTCAAATATAACGGAGTCACCTAGTGCAG”, with 8910 fluorescence intensity (a.u.); and “AGCTAATTAAGAATAAGTTATAACTAGACCAATAATCAAGCGGAGTCACCTAGTGCAG”, with 20200 fluorescence intensity (a.u.).
As for “TGGGCTCACCTGATTGGGCCCACACTGCAACGGAGAGCCCCGGAGTCACCTAGTGCAG”, the binding signal is 6410 fluorescence intensity (a.u.).
Consider “AAACCGTTGATTGGATTGACATTGACTTTGCTCTTAAATCCGGAGTCACCTAGTGCAG”, for which the binding signal is 30200 fluorescence intensity (a.u.).
“ATTTGATGATCACACACTCATGTATGCATGTTATTAGTATCGGAGTCACCTAGTGCAG”: the binding signal is 3710 fluorescence intensity (a.u.).
For “AATCTATCATTAGCACATGTGGGTTACTGTAGCACTATGGCGGAGTCACCTAGTGCAG”, the binding signal is 3740 fluorescence intensity (a.u.).
For “GGTTGTGATTGGTTGAGAAGTGGAGGTAGCTGAGAAAATTCGGAGTCACCTAGTGCAG”, the binding signal is 32200 fluorescence intensity (a.u.).
In the case of “TTTTAATTATTGCTCTAGGTATATATGAACTAATAATGCTCGGAGTCACCTAGTGCAG”, the binding signal was 19400 fluorescence intensity (a.u.).
Turning to “GGTGAGAATGATTGAAGAAAGTATGTGATTGGTTGAAAAGCGGAGTCACCTAGTGCAG”, the binding signal was 39400 fluorescence intensity (a.u.).
For “GAGATGACCTAAACGATCATAATTAGGCGGTGTTGAGTTGCGGAGTCACCTAGTGCAG”, the binding signal was 3620 fluorescence intensity (a.u.).
Consider “AGAGATTGAGAGTGCTAGCTGATGCTACAGGCCTACAGCCCGGAGTCACCTAGTGCAG”, for which the binding signal was 17400 fluorescence intensity (a.u.).
“CTATAAATAAGCCCATTAATTTGTCCCAAGCAAAGCAAGCCGGAGTCACCTAGTGCAG”: the binding signal is 7020 fluorescence intensity (a.u.).
For “TTGTGAATGAAATTATGAAACAGAAGATTGTGATCTATTTCGGAGTCACCTAGTGCAG”, the binding signal is 7850 fluorescence intensity (a.u.).
Consider “GTTGCCGTCGTCCTATCAATCACTTGGCCGGTCACAGACCCGGAGTCACCTAGTGCAG”, for which the binding signal is 9060 fluorescence intensity (a.u.).
On to “CTCGTTGACAGCCCTACTGCCTGCCTATGTGAATTTCCATCGGAGTCACCTAGTGCAG”, for which the binding signal is 5590 fluorescence intensity (a.u.).
Then “ATCTACACAAATTAGATGAGTTAGCAAGCTTGTCCTCTAACGGAGTCACCTAGTGCAG”, with 6430 fluorescence intensity (a.u.); and “CCAAGAATAATTGGGTTTTGTTTAGATCAAAGTATAGCGTCGGAGTCACCTAGTGCAG”, with 7330 fluorescence intensity (a.u.).
With “TCACACTTTGATTAGGCCGTGCAGCCCCAACCACAAGTCCCGGAGTCACCTAGTGCAG”, the binding signal is 6680 fluorescence intensity (a.u.).
Regarding “CCTACAAACGTCAATCACAGCCAACAATAACTTCAAACTTCGGAGTCACCTAGTGCAG”, the binding signal is 16200 fluorescence intensity (a.u.).
“GATGTAATTATAATTAAAGTTTTAAAATTTATAGTAATTACGGAGTCACCTAGTGCAG”: the binding signal was 34600 fluorescence intensity (a.u.).
As to “ACAATCAATCAATCTTGCTTTCCATTCAAAGTCTTCATTTCGGAGTCACCTAGTGCAG”, the binding signal was 35000 fluorescence intensity (a.u.).
